This is one part of the list. Single values are uncertain, as repeats are few or missing.
Test system: A101D
Test: cell count relative to DMSO control; melanoma cells; higher = more viable cells
Conditions: library dose: standard library concentration; 72 h
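Further: cells treated in 1,536-well plates, then fixed and DAPI-stained, with nuclei counted from automated high-throughput microscope images.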

Row | SMILES | cell count [%]
1 | Cc1cc(Nc2cc(N3CCN(C)CC3)nc(/C=C/c3ccccc3)n2)n[nH]1 + N#Cc1c(O)c2c(-c3ccc(-c4ccccc4O)cc3)csc2[nH]c1=O [A769662] (first compound 0.2 µM, partner dose 10 µM) | 80.1
2 | CC(C)C[C@H](NC(=O)[C@H](Cc1ccccc1)NC(=O)c1cnccn1)B(O)O [Bortezomib] + O=S(=O)(c1ccccc1)N(CC(F)(F)F)c1ccc(C(O)(C(F)(F)F)C(F)(F)F)cc1 [T0901317] (first compound 0.005 µM, partner dose 7 µM) | 12.8
3 | Cn1c(=O)n(-c2ccc(C(C)(C)C#N)cc2)c2c3cc(-c4cnc5ccccc5c4)ccc3ncc21 + CC(C)CCN1c2nc(Nc3cc(F)c(O)c(F)c3)ncc2N(C)C(=O)C1C [BID1870] (first compound 0.02 µM, partner dose 1 µM) | 69.1
4 | Cc1cn(-c2cc(NC(=O)c3ccc(C)c(Nc4nccc(-c5cccnc5)n4)c3)cc(C(F)(F)F)c2)cn1 [nilotinib] + Cn1cncc1[C@@](N)(c1ccc(Cl)cc1)c1ccc2c(c1)c(-c1cccc(Cl)c1)cc(=O)n2C [tipifarnib] (first compound 1 µM, partner dose 0.05 µM) | 86.4
5 | Cn1c(=O)n(-c2ccc(C(C)(C)C#N)cc2)c2c3cc(-c4cnc5ccccc5c4)ccc3ncc21 + COC(=O)c1sccc1S(=O)(=O)Nc1ccc(Nc2ccccc2)cc1OC [GSK0660] (first compound 0.02 µM, partner dose 5 µM) | 74.8
6 | CC(C)C[C@H](NC(=O)[C@H](Cc1ccccc1)NC(=O)c1cnccn1)B(O)O [Bortezomib] + Oc1cc(-c2nc(-c3ccccc3)[nH]c2-c2ccncc2)ccc1Cl [L779450] (first compound 0.005 µM, partner dose 1 µM) | 11.3
7 | Cc1cn(-c2cc(NC(=O)c3ccc(C)c(Nc4nccc(-c5cccnc5)n4)c3)cc(C(F)(F)F)c2)cn1 [nilotinib] + C[C@@H]1CCN(C(=O)CC#N)C[C@@H]1N(C)c1ncnc2[nH]ccc12 [CP690550] (first compound 1 µM, partner dose 5 µM) | 85.9
8 | Cc1cn(-c2cc(NC(=O)c3ccc(C)c(Nc4nccc(-c5cccnc5)n4)c3)cc(C(F)(F)F)c2)cn1 [nilotinib] + CCN(CC)CCCCNc1ncc2cc(-c3cc(OC)cc(OC)c3)c(NC(=O)NC(C)(C)C)nc2n1 [PD173074] (first compound 1 µM, partner dose 0.5 µM) | 83.2
9 | COc1ccc(C2=N[C@@H](c3ccc(Cl)cc3)[C@@H](c3ccc(Cl)cc3)N2C(=O)N2CCNC(=O)C2)c(OC(C)C)c1 [Nutlin-3] + CC(=O)O[C@@]12CO[C@@H]1C[C@H](O)[C@@]1(C)C(=O)[C@H](O)C3=C(C)[C@@H](OC(=O)[C@H](O)[C@@H](NC(=O)OC(C)(C)C)c4ccccc4)C[C@@](O)([C@@H](OC(=O)c4ccccc4)[C@H]21)C3(C)C [Docetaxel] (first compound 0.5 µM, partner dose 0.0005 µM) | 45.1
10 | CC(C)C[C@H](NC(=O)[C@H](Cc1ccccc1)NC(=O)c1cnccn1)B(O)O [Bortezomib] + CCCCCCCCCCCC1=C(O)C(=O)C=C(O)C1=O [Embelin] (first compound 0.005 µM, partner dose 6 µM) | 70.8
11 | Cn1c(=O)n(-c2ccc(C(C)(C)C#N)cc2)c2c3cc(-c4cnc5ccccc5c4)ccc3ncc21 + N#Cc1c(O)c2c(-c3ccc(-c4ccccc4O)cc3)csc2[nH]c1=O [A769662] (first compound 0.02 µM, partner dose 10 µM) | 74.9
12 | Cc1cn(-c2cc(NC(=O)c3ccc(C)c(Nc4nccc(-c5cccnc5)n4)c3)cc(C(F)(F)F)c2)cn1 [nilotinib] + COc1ccc(-c2ccc3c(N4CCOCC4)nc(N4C[C@@H](C)O[C@@H](C)C4)nc3n2)cc1CO [KU0063794] (first compound 1 µM, partner dose 0.1 µM) | 85
13 | Cc1cn(-c2cc(NC(=O)c3ccc(C)c(Nc4nccc(-c5cccnc5)n4)c3)cc(C(F)(F)F)c2)cn1 [nilotinib] + CCCS(=O)(=O)Nc1ccc(F)c(C(=O)c2c[nH]c3ncc(Cl)cc23)c1F [PLX4720] (first compound 1 µM, partner dose 0.4 µM) | 79.6
